Reference: PubChem BioAssay AID1347165 (National Center for Advancing Translational Sciences (NCATS), 2019)
In all, about 220,000 compounds went through this assay and about 5,700 (2.6%) were called active. Inconclusive means that the source gave no clear call. Such entries were picked first, then a sample of the others. Calls come from the whole dose curve; as a rule, active = well fitted inhibition curve with a large enough effect; inconclusive = small, poorly fitted or top-dose-only effect; inactive = no such curve, though single readings can be large or run the other way. Potencies of inconclusive entries are doubtful fits and often do not repeat.

What follows are compounds tested against Lysine-specific demethylase 5B (Homo sapiens) (UniProt Q9UGL1) (assay: Primary screen for KDM5B Histone Demethylases FDH-coupled qHTS). Settings: FDH-coupled NADH fluorescence (FDH is formaldehyde dehydrogenase); activity change, negative = inhibition: at 57.7 µM (top of the series) unless noted.
UniProt Q9UGL1, sequence (Q9UGL1 whole entry, looked up): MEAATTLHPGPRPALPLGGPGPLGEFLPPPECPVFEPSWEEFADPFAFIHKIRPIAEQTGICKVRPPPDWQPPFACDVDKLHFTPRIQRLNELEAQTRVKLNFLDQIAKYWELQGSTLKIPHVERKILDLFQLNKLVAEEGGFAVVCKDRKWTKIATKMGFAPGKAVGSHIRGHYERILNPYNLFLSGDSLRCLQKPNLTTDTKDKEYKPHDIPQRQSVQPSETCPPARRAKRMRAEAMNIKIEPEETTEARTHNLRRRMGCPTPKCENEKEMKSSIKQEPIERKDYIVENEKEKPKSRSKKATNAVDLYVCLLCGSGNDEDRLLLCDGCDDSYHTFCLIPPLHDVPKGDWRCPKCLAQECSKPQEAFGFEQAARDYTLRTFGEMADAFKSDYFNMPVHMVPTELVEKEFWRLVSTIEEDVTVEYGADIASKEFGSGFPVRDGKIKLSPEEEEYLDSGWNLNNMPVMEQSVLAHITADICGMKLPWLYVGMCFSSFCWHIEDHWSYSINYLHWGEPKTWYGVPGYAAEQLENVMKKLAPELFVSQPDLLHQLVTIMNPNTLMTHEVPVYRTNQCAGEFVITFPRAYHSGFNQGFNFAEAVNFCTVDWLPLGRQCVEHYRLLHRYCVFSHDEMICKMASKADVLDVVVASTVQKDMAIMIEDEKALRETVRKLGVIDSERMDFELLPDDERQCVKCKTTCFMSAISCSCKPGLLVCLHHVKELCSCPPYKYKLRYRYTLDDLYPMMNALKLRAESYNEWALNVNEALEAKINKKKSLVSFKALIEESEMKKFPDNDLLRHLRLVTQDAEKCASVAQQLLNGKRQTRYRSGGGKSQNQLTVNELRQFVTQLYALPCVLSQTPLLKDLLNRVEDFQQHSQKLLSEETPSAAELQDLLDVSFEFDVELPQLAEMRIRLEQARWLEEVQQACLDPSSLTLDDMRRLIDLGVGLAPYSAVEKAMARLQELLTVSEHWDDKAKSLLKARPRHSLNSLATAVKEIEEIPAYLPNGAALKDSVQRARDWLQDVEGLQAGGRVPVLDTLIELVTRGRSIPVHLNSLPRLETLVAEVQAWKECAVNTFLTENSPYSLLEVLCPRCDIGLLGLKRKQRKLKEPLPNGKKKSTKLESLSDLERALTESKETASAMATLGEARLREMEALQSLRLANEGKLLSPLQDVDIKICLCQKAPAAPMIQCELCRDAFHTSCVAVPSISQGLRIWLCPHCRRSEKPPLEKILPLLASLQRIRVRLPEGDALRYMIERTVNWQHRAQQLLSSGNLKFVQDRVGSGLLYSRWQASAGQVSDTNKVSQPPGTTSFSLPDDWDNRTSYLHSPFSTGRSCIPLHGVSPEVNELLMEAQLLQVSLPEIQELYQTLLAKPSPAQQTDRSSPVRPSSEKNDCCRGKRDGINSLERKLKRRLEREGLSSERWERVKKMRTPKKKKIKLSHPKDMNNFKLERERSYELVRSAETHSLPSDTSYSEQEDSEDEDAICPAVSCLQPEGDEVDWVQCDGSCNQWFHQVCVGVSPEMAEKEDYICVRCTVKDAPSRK
In short: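 Coupled FDH/NAD⁺ fluorescence readout. KDM5BΔAP 200 nM final; compound titration, 10 min RT preincubation; substrate mix 12.5 µM H3K4me3, 25 µM 2-OG, 50 µM Fe(II), 100 µM ascorbate, 0.25 mM NAD⁺, 0.25 U/mL FDH; ΔRFU over 30 min.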
Note: nearly all actives have a fitted effect of over 70% in size.
Potency is the fitted concentration of half-maximal effect; tags give direction and shape of the fitted curve.
Throughout, for activity change, negative = inhibition: 0% is about no effect.

SMILES	Potency	activity change, negative = inhibition
Cn1cc(CN2CCN(c3cnccn3)CC2)c(-c2ccc(C3CCCCC3)cc2)n1	active: 28.2 µM	
CC(C)=CCC1(CO)CCCN(Cc2cc(=O)n3cc(C)sc3n2)C1 (stereo unspecified)	active: 28.2 µM	
CN1CC2(CCCN(CC3CC3)C2)c2cc(C(=O)NCCOc3ccccc3)ccc21 (stereo unspecified)	active: 35.5 µM	
Cc1ccc2nsnc2c1NC(=O)COc1ccc(C(C)(C)C)cc1	inconclusive: 31.6 µM [inhibitor, single point]	
CCOc1cc(-c2nnc(SCC(=O)NCc3ccc(C)cc3)nc2-c2ccc(OC)c(OCC)c2)ccc1OC	inconclusive: 25.1 µM [inhibitor, single point]	
COc1ccc(COc2ccc(C#N)cc2OC)cc1		inactive: 26.3%
CN(Cc1nc(-c2ccncc2)no1)C(=O)C1CNCCO1 (stereo unspecified)	inconclusive: 20 µM [inhibitor, partial curve, poor fit]	
COC(=O)C1CCCN1C(=O)c1c(C)oc2c1CN(Cc1ccc(C)cc1)CC2 (stereo unspecified)	inconclusive: 25.1 µM [inhibitor, single point]	
CCNc1cc(C(=O)N2CCOCC2)c2ccccc2n1	inconclusive: 28.2 µM [inhibitor, single point]	
Cc1cnc(CCNC(=O)c2cn(C)cn2)n1C1CC1	inconclusive: 1.78 µM [inhibitor, full curve, poor fit]	
CN(C)S(=O)(=O)c1ccc(Cl)c(C(=O)NCc2ccc(N3CCCC3)nc2)c1		inactive: -16.6%
CCCNC(=O)c1c2c(nc3ccccc13)C(=O)N(C1CCCCC1)C2	inconclusive: 15.8 µM [inhibitor, partial curve, poor fit]	
CCc1cc2c(cc1C1(C)OCC(C)O1)C(C)(C)CCC2(C)C (stereo unspecified)		inactive: 20.8%
CCOc1ccc(-c2nc(C#N)c(NCc3ccccc3Cl)o2)cc1		inactive: 17.5%
Cc1cccn2c(=O)c(/C=C(\C#N)c3nc4ccccc4n3C)c(Oc3ccc(Cl)cc3)nc12	inconclusive: 2.82 µM [inhibitor, partial curve, poor fit]	
CCOCCCNC(=S)Nc1ccc2nc(N3CCOCC3)cc(C)c2c1	inconclusive: 20 µM [inhibitor, partial curve, poor fit]	
Cc1cccc(C)c1NC(=O)Cn1c(=O)c2c(ncn2CC(C)C)n(Cc2ccccc2)c1=O		inactive: 16.7%
O=C(NCc1cccs1)c1cc(-c2cccnc2)nc2ccc(Br)cc12		inactive: -16.4%
CCOC(=O)C(CCC#N)(NC(C)=O)C(=O)OCC		inactive: 20.5%
O=C(CCC1CCCCC1)NC1CCN(c2ccc(=O)n(CC3CC3)n2)CC1	inconclusive: 31.6 µM [inhibitor, single point]	
Cc1ccc(C)c(OCC(O)Cn2nc(C)c3ccccc3c2=O)c1C (stereo unspecified)		inactive: 17.9%
CN1Cc2cccn2CC1CNC(=O)c1cnn(C)c1 (stereo unspecified)	active: 22.4 µM	
O=C(OCCOc1ccc(Br)cc1)c1cccc([N+](=O)[O-])c1		inactive: 5.73%

SMILES	Potency	activity change, negative = inhibition
O=C1CCCc2occ(C(=O)N3CCCC4(CCNC4)C3)c21 (stereo unspecified)		inactive: -30.2%
Cc1ccc(NC(=O)CCNC(=O)c2ccccc2)cc1F	inconclusive: 2 µM [inhibitor, full curve, poor fit]	
Cc1ccccc1OCc1nc(C2CN(C(=O)c3ccc4nc[nH]c4c3)C2)no1		inactive: 4.91%
COc1ccc(CCNC(=O)CC(c2cccc(F)c2)c2cn(C)c3ccccc23)cc1OC (stereo unspecified)	inconclusive: 39.8 µM [inhibitor, partial curve, poor fit]	
OCc1nc2ccccc2n1CC(O)COc1ccccc1F (stereo unspecified)		inactive: 11.6%
COc1ccc(CN2CCN(S(=O)(=O)c3ccccc3)CC2)c(OC)c1	inconclusive: 25.1 µM [inhibitor, partial curve, poor fit]	
CCCn1cc(S(=O)(=O)c2ccc(OC)cc2)c(=O)c2cc(F)c(N3CCCCCC3)cc21	inconclusive: 2.82 µM [inhibitor, partial curve, poor fit]	
CC(C)Oc1ccc(CNC(=O)C2CCCN(S(=O)(=O)c3ccc4c(ccn4C)c3)C2)cc1 (stereo unspecified)	inconclusive: 39.8 µM [inhibitor, single point]	
CCn1cc(S(=O)(=O)c2ccc(C)cc2C)c(=O)c2cc(F)c(N3CCCC3)cc21	inconclusive: 35.5 µM [inhibitor, partial curve, poor fit]	
O=C(NCC1CCOCC1)c1ccsc1	inconclusive: 6.31 µM [inhibitor, partial curve, poor fit]	
COC(=O)c1c(NC(=O)COc2ccc(OC)cc2)sc2c1CCC(C)C2 (stereo unspecified)	inconclusive: 35.5 µM [inhibitor, partial curve, poor fit]	
CCCCCc1ccc(C(=O)C(C)C)cc1		inactive: 27.3%
COc1cccc(Nc2nc(-c3ccc([N+](=O)[O-])cc3)nc3ccccc23)c1		inactive: 17.9%
Cc1csc(CNC(=O)c2ccccn2)n1		inactive: 7.52%
O=C(c1cnc(N2CCOCC2)c2ccccc12)N1CCN(c2ccccc2F)CC1	inconclusive: 44.7 µM [inhibitor, single point]	
CN(C)c1ccc(CNC(=O)c2ccc3c(c2)N(C)C(=O)C2CCCCN32)cc1 (stereo unspecified)	inconclusive: 39.8 µM [inhibitor, single point]	
CC1Sc2ccc(C(=O)NO)cc2NC1=O (stereo unspecified)	inconclusive: 11.2 µM [inhibitor, partial curve, poor fit]	
Cn1c(CC(=O)Nc2ccccc2F)nnc1SCC(=O)N1CCOCC1		inconclusive: -33.4% [inhibitor]
COc1ccc(-n2nc(C(=O)NCc3ccc(F)cc3)c3c4ccccc4n(C)c3c2=O)cc1		inactive: 8.38%
O=C(COC(=O)c1cc2ccccc2cc1O)Nc1ccccc1F	inconclusive: 22.4 µM [inhibitor, partial curve, poor fit]	
CN1CCN(C(=O)c2cnc(N3CCOCC3)c3ccccc23)CC1		inactive: 15%
CCCCOc1ccc(CN2C(=O)C(=O)c3cc(C)ccc32)cc1OC	inconclusive: 2.51 µM [inhibitor, full curve, poor fit]	
COc1cccc(NC(=O)c2ccc3c(c2)C(O)CCCCCN3C)c1 (stereo unspecified)	inconclusive: 35.5 µM [inhibitor, single point]	
